Measurements reported in the supplement of paper PMC3334620.
The full ranking holds about 33,000 sequences; the median of “E-score (-0.5 to 0.5)” is about -0.017, and the highest 2% start at about 0.3. The list shows a part of the results.

target: T1, Sut1 (UniProt P53032); assay: PBM E-score (8-mer binding enrichment) (E-score (-0.5 to 0.5)); higher = stronger / more preferred TF binding; most listed sequences are background and not binding sites; details: protein concentration: 200 nM; construct: GST-full length
T1 sequence: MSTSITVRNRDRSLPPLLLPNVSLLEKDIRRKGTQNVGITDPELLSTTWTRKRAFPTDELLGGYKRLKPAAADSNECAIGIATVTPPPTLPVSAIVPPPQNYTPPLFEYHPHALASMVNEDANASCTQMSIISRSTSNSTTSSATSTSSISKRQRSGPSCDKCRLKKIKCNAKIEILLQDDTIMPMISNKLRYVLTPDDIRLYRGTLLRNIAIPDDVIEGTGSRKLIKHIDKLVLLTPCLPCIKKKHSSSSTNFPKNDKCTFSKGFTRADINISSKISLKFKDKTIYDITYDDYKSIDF
How it was run: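 Bound GST-tagged yeast transcription factors, applied at about 100-200 nM to double-stranded universal all-10-mer Agilent arrays, were detected with fluorescent anti-GST. Scans were normalised with masliner. A modified Wilcoxon-Mann-Whitney statistic, the E-score, was assigned to each ungapped eight-base word pooled with its reverse complement by the Universal PBM Analysis Suite.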

Sequence | PBM E-score
TCCGGGAA | 0.356
GTGATTTA | 0.101
TAGGCACA | -0.231
ATGCCCTC | -0.108
GAGCTCGA | 0.0102
CCTTTGTC | -0.0868
ATCATCGC | 0.0155
CTACAGAA | 0.0324
CAGAAATA | 0.161
CTCCGAAG | 0.457
AACGGCAC | -0.0982
TATATGAA | 0.162
GAGGTATA | 0.196
ATAGTAGA | 0.177
ACGATGCA | 0.0229
AGTATCTG | -0.0411
ACTGTTGA | -0.0111
AGTCCGTC | 0.424
AAGACACG | 0.103
AGTACTAA | 0.119
AAGTTCCT | -0.0213
AGATTCCA | 0.145
ATGTTCAA | 0.0198
CGAAAGCC | 0.104
CAGGTTGG | -0.195

Sequence | PBM E-score
ACAATGCA | 0.0426
CCGCACGG | -0.0701
CCGCCTTA | -0.26
CGTGGTTA | -0.154
TGAACAAA | 0.183
ATACCGAA | 0.173
ATTCTATG | 0.129
AGGATATG | 0.0511
CAGTCTGG | -0.273
ATACGGGC | -0.126
CAACTCAC | 0.0385
GCAGAATA | -0.0687
ACGAGCCC | -0.213
CATCCAAG | -0.1
AAGGGTAG | -0.257
CCTTCAAG | -0.125
AGCACGAT | -0.0209
GCTAGTTA | -0.0157
ACGCACTA | -0.0472
CTTTGCCC | -0.134
AGCGCGGA | 0.198
ATCTATTA | 0.26
AGACCCCC | -0.277
ATGTATGG | -0.0921
CCCCTGAA | -0.317

Sequence | PBM E-score
AGACCACC | -0.0644
ACTTGCAC | -0.0271
AGGTCGAC | -0.0737
AGGCGGCC | -0.275
AGGGAGTA | -0.181
CACGTTGC | -0.187
AAGTTCAT | 0.145
GAGCGCGC | -0.0158
GGACCCCC | -0.211
AAACGTAT | 0.173
GCGCAAAA | 0.0966
AAATGTGG | 0.168
ACCGTAAA | 0.155
ACTGGCAA | -0.00447
GGCCAGAC | -0.0757
ATTTAGTA | 0.261
GCGGTTGA | 0.0176
GGATTAAA | 0.0968
ATGGGGCG | -0.22
TCTGGCCA | -0.195
GCGATACC | -0.179
AGAACTGA | -0.0095
CCTTAGCA | -0.096
ATCGACGC | -0.172
AATGATAA | 0.299

Sequence | PBM E-score
ACACTCCT | -0.0674
AATTCCAC | 0.115
GGCCAACC | -0.186
TATACGAA | 0.194
AACCTCGA | -0.0432
CTAAGAGC | -0.0595
AAAAGTAT | 0.129
AAGGAACC | 0.0363
ATTTGAGA | 0.0267
ACGGCGTA | -0.0916
GTGTTCTA | 0.0717
AGCAAGCT | -0.186
AGAAGTGC | -0.186
AATCAACC | 0.0271
AAGACCCC | -0.028
AAAATACC | 0.235
CGAATCAC | 0.0698
TAATGGAA | 0.069
ACTCACCA | 0.0183
ACGCTGAG | -0.16
TAGACTGA | 0.0479
CTTCTAAA | 0.221
GTTCGGCA | -0.0011
CGATCCAG | -0.216
CTTTTCTA | 0.081

Sequence | PBM E-score
ACGATGAT | -0.0549
AGGTGGAT | -0.0899
ATCAGTTA | 0.204
AAGCGGAT | 0.187
AAGACGTA | -0.0734
GACTAAGA | 0.129
ATGAGGTA | 0.0682
CACTCCTA | -0.0496
GGGTACTA | 0.00932
AACGTTAG | -0.0105
ATAAAAAA | 0.265
CGTGGCGA | -0.18
TCCGCACA | 0.124
CGGTTCAC | -0.196
CTAAATTC | 0.187
ATTCCACG | -0.126
TGACACCA | -0.125
GTGTCTGA | -0.0232
GCAACATA | -0.0182
AGTGGCGA | 0.0883
CGGAAGCC | 0.112
GTGTCCTA | -0.0384
GCGAAGAA | 0.0776
AGTAGTGC | -0.185
CGGCCTGC | -0.186

Sequence | PBM E-score
TCGGGTAA | 0.109
GGCGGCAA | -0.112
ATGGCCGA | -0.0627
GCCTAAAC | -0.106
GCGGAGAC | 0.183
AGCGCGTG | -0.108
GGGATGAC | -0.134
CCAGCTGG | -0.188
TCACCGCA | -0.0955
GAACATAA | 0.166
CGTCATAG | -0.0945
AACCGCGA | 0.176
AGGGCGAC | -0.145
ACTTCCGA | 0.245
CCACCTCC | -0.127
ACCGTCAA | 0.0585
GAATACGC | 0.0146
CGTTCAGC | -0.0909
AGGCCCAC | -0.387
AAGCCGAC | -0.0298
AACTTGGA | -0.0712
CGGCTGTA | -0.119
AAGATACC | 0.142
AACCGAAG | 0.139
AGACGTAA | -0.134

Sequence | PBM E-score
CTCCTGAA | -0.0399
GCCCTGCA | -0.197
CCTGCGAG | -0.16
GCTAGACA | -0.0247
GGATAGAA | 0.0802
CATTTTCG | 0.141
AGGTAACG | -0.0455
AAGGGCGT | -0.146
CACTCTCG | -0.0481
ACCGAGAT | 0.26
TGATTAAA | 0.242
ACAGGCTA | -0.245
ATTTTAAG | 0.212
CTAAACTA | 0.0672
CATCGCCC | -0.251
CGTGATAG | -0.0575
CATTACCC | 0.0462
CGGTTACA | 0.14
TCGAATAA | 0.061
CGCCCAAG | -0.248
CTCGGTCC | 0.0345
CCAGACAC | -0.186
